Laboratory results taken from PubChem BioAssay AID1347120 (National Center for Advancing Translational Sciences (NCATS), 2019).
Hit rate of the full screen: of about 390,000 compounds, about 930 (0.24%) were called active. The inconclusive results got no clear call from the source; some entries with a clear call stand among them for comparison. The call rests on the fitted dose curve; in most records, active means well fitted activation curve with a large enough effect; inconclusive means small, poorly fitted or top-dose-only effect; inactive means no such curve, though single readings can be large or run the other way. Potencies beside an inconclusive call are fits to weak or partial responses and may not hold up.

assay: qHTS for Suppressors of FUS Proteinopathy: Primary screen using FUS-linked yeast assay; further: nearly all actives have a fitted effect of over 55% in size; conditions: S. cerevisiae FUS-expressing, OD600, 24 h; Potency: growth rescue; series mostly up to 76.6 µM
In short: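 Yeast FUS proteinopathy model; galactose-induced FUS (2%), starting OD 0.005. Cpds in dilution series, 24hr, 30C, 99% humidity. Abs 600 nm growth. Pos ctrl CP55940 (top 92uM final); neg ctrl DMSO.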
Potency means the concentration at half of the fitted maximal effect; tags describe the fitted curve by direction and shape.

SMILES | Potency
Cc1ccc(S(=O)(=O)N(CC(=O)N=Nc2c(O)[nH]c3ccccc23)c2ccc(C)c(C)c2)cc1 | inconclusive: 35.5 µM [activator, single point]
CC[C@H](C)[C@H]1O[C@]2(CC[C@@H]1C)C[C@@H]1C[C@@H](CC=C(C)[C@@H](O[C@H]3C[C@H](OC)[C@@H](O[C@H]4C[C@H](OC)[C@@H](O)[C@H](C)O4)[C@H](C)O3)[C@@H](C)C=CC=C3CO[C@@H]4[C@H](O)C(C)=C[C@@H](C(=O)O1)[C@]34O)O2 | active: 7.08 µM
CCCN(CC1CC1)C(=O)CN1C(=O)C2CCCCN2C(=O)c2ccccc21 (configuration not stated) | inactive
COc1ccc(Nc2nc(-c3cccs3)nc3ccccc23)c(OC)c1 | inconclusive: 25.1 µM [activator, partial curve, poor fit]
O=C(CCC(=O)N1CCN(c2ccc(Cl)c(Cl)c2)CC1)c1ccccc1 | inconclusive: 11.2 µM [activator, partial curve]
Cc1ccc(S(=O)(=O)N2C[C@H]3[C@H]4C(=O)N(c5ccccc5)C(=O)[C@H]4CC(=O)[C@H]3[C@@H]2c2ccccc2)cc1 | inconclusive: 50.1 µM [activator, single point]
COc1ccc(CCNC(=O)c2ccccc2NC(=O)c2ccco2)cc1OC | inactive
CN(Cc1ccccc1)C(=O)c1ccc(NC(=O)Cc2ccc(NC(=O)C3CCCN(C(=O)C4CCCC4)C3)cc2)cc1 (configuration not stated) | inconclusive: 20 µM [activator, single point]
CCOC(=O)C(=CNc1cc(OC)ccc1-n1cccc1)C(=O)OCC | inconclusive: 25.1 µM [activator, partial curve, poor fit]
Cc1ccc(NC(=O)c2c(C)nc3sc(C(=O)Nc4ccc(F)cc4)c(N)c3c2-c2ccc(C)o2)c(C)c1 | inconclusive: 22.4 µM [activator, partial curve, poor fit]
CC(C)C[C@@H](CN1CCCC1CN1C(=S)NC[C@@H]1Cc1ccc(O)cc1)N1C[C@H](Cc2ccccc2)N(CCc2ccccc2)C1=S (some centres not stated) | inconclusive: 28.2 µM [activator, single point]
Cc1cc(Cl)ccc1OCC(=O)OCC(=O)Nc1ccc(F)c([N+](=O)[O-])c1 | inconclusive: 39.8 µM [activator, partial curve, poor fit]
CCOC(=O)c1ccc(NC(=O)c2nc[nH]c2C(=O)NCC(=O)OC(C)(C)C)cc1 | inconclusive: 50.1 µM [activator, single point]
Cc1ccc2nc(/C(C#N)=C\c3cc(C)n(-c4cccc([N+](=O)[O-])c4)c3C)[nH]c2c1 | inconclusive: 22.4 µM [activator, partial curve, poor fit]
Cc1ccc(OCC(=O)NCC2(N(C)C)CCCCC2)cc1C | inactive
COc1ccc2nc(N3CCCCC3)c(C#N)cc2c1 | inactive
CCCCN1C(C(=O)Nc2cc(C)on2)=C(O)c2ccccc2S1(=O)=O | inactive
Cc1ccc(Cn2cc(C(=O)c3ccc4c(c3)OCO4)c(=O)c3cc(C)ccc32)cc1 | inconclusive: 31.6 µM [activator, single point]
CCCNC(=O)c1ccccc1NC(=O)c1ccc2c(c1)NC(=O)C(C)S2 (configuration not stated) | inconclusive: 5.62 µM [activator, full curve]
COc1ccc(-c2cn(-c3ccc(C)c(Cl)c3)c(=S)[nH]2)cc1OC | inconclusive: 44.7 µM [activator, single point]
COc1ccc(-c2noc(C3CCCN(C(=O)Nc4ccc(C)c(F)c4)C3)n2)cc1 (configuration not stated) | inactive

SMILES | Potency
Fc1ccc2[nH]c(-c3cccs3)cc2c1 | inactive
CCOc1ccc(NC(=O)C2CCCN(S(=O)(=O)c3c(C)noc3/C=C/N(C)C)C2)cc1 (configuration not stated) | inconclusive: 28.2 µM [activator, partial curve, poor fit]
CC1=C(C(=O)N(C(C)C)C(C)C)CC(CC(=O)NCC2CCCCC2)C(=O)N1Cc1ccc(C(C)(C)C)cc1 (configuration not stated) | inconclusive: 21.7 µM [activator, partial curve]
CCC1CCCCN1S(=O)(=O)c1cc(C(=O)Nc2ccc(C)c(F)c2)ccc1F (configuration not stated) | inactive
Cc1ccc(CNC(=O)c2cnn(-c3cccc(C)c3)c2C2CCN(C(=O)OC(C)(C)C)CC2)cc1 | inconclusive: 20 µM [activator, partial curve, poor fit]
COc1ccc(S(=O)(=O)N2CCCCCC2)cc1NC(=O)c1ccccc1F | inconclusive: 5.62 µM [activator, single point]
COc1cccc(CN(C)C(=O)c2cc(S(=O)(=O)NCc3ccccc3)ccc2C)c1OC | inconclusive: 15.8 µM [activator, partial curve, poor fit]
Cc1cc(C)nc(/N=C(\N)Nc2ccc(C(C)C)cc2)n1 | inactive
CN(C)S(=O)(=O)N1CCC(Oc2cccc(C(=O)N3CCCCCCC3)c2)CC1 | inactive
CCOC(=O)c1c(NC(=O)CSc2nnc(N)s2)sc(C)c1-c1ccc(C)cc1 | inactive
Cc1cc(/C([O-])=C(/C(=S)Nc2ccc(F)cc2)[n+]2ccccc2)c(C)n1-c1ccc(F)cc1 | inconclusive: 11.2 µM [activator, full curve, poor fit]
CC(C)CC(=O)Nc1cc(-c2ccccc2F)nn1-c1ccccc1 | inactive
CCN(CC)C(=O)c1ccccc1NC(=O)c1ccccc1 | inconclusive: 11.2 µM [activator, partial curve, poor fit]
Cc1ccc(C(=O)COC(=O)C(Cc2c[nH]c3ccccc23)NC(=O)c2ccc(C(C)(C)C)cc2)cc1 (configuration not stated) | inconclusive: 35.5 µM [activator, single point]
Cc1ccc2[nH]c(=O)c(CN(C(=O)c3cccc(Cl)c3)C(C)(C)C)cc2c1 | inactive
Cc1cc(C)cc(-n2c3ccc(NC(=S)NC4CCCCC4)cc3c(=O)n2C)c1 | inconclusive: 28.2 µM [activator, single point]
COC(=O)c1ccccc1-c1ccc(/C=N/Nc2nc(N3CCCC3)nc(N3CCCC3)n2)o1 | inconclusive: 7.94 µM [activator, full curve]
CCCC(=O)Nc1ccc2nc(SCC(=O)Nc3nccs3)sc2c1 | inactive
Cc1ccc(NC(=O)COC(=O)c2nn(C)c(=O)c3ccccc23)cc1F | inactive
Cc1cccc(Nc2nnc(SCC(O)=C(C#N)c3nc4ccccc4[nH]3)s2)c1 | inconclusive: 11.2 µM [activator, partial curve, poor fit]
COC(=O)CCC(=O)OC1(C)C(=O)C2=CN(CCCOC(C)C)C(c3ccc(OC)cc3)=CC2=C(Br)C1=O (configuration not stated) | inconclusive: 35.5 µM [activator, single point]

SMILES | Potency
COc1ccc(CNC(=O)CSc2ncc(S(=O)(=O)c3ccc(C)c(Cl)c3)c(=O)[nH]2)cc1 | inconclusive: 22.4 µM [activator, single point]
Cc1c(C(=O)Nc2ccc(C(C)C)cc2)sc2nc[nH]c(=O)c12 | inactive
c1ccc2[nH]c(NC3=NCCC3)nc2c1 | inactive
COc1ccc(CC(=O)Nc2cc(S(=O)(=O)N3CCCCC3)ccc2C)cc1 | inconclusive: 22.4 µM [activator, partial curve]
Cc1cccc(Nc2nnc(-c3ccc(N4CCOCC4)c([N+](=O)[O-])c3)c3ccccc23)c1 | inactive
COc1cc(CC(=O)Nc2cccc(S(=O)(=O)N(C)c3ccccc3)c2)cc(OC)c1OC | inconclusive: 25.1 µM [activator, partial curve]
CCN(CC)CCCNC(=O)c1ccc2c(c1)NC(=O)C(CS(=O)(=O)Cc1cccc(Br)c1)N2 (configuration not stated) | inconclusive: 39.8 µM [activator, single point]
Cc1cc(C)n2ncc(C(=O)NCCc3ccccc3)c2n1 | inactive
Cc1cccc(C)c1Nc1nnc(SCc2cc([N+](=O)[O-])cc3c2OCOC3)s1 | inconclusive: 50.1 µM [activator, partial curve, poor fit]
CN(C)c1ccc(NS(=O)(=O)c2cc3c4c(c2)CC(=O)N4CCC3)cc1 | inconclusive: 11.2 µM [activator, partial curve, poor fit]
COc1ccc(Nc2nnc(SCC(=O)c3cc(C)n(CC4CCCO4)c3C)s2)cc1 (configuration not stated) | inconclusive: 7.08 µM [activator, full curve, poor fit]
NNC(=O)CN1C(c2ccc(Br)cc2)=Nc2ccc(Br)cc2C1c1ccccc1 (configuration not stated) | inconclusive: 14.1 µM [activator, partial curve, poor fit]
COC(=O)Cn1c(=NC(=O)c2nc3ccccc3s2)sc2cc(S(N)(=O)=O)ccc21 | inactive
CCSc1nnc(-c2cnn(-c3ccccc3)c2-n2cccc2)n1C | inactive
CCOC(=O)N1CCN(C(=O)C[C@H]2C[C@@]3(C(=O)OC)C(=C[C@H](COCc4ccccc4)O[C@@H]3C)N(Cc3ccccc3)C2=O)CC1 | inconclusive: 15.8 µM [activator, partial curve, poor fit]
CCOC(=O)c1ccc(Nc2nc(-c3cccnc3)nc3ccccc23)cc1 | inactive
S=c1[nH]nc(-c2cc(-c3ccccc3)n[nH]2)n1/N=C/C=C/c1ccco1 | inconclusive: 4.47 µM [activator, full curve]
Nc1c(C(=O)Nc2ccccc2F)sc2nc(-c3ccco3)ccc12 | inactive
CC(C)Cc1nnc(NC(=O)c2ccc([N+](=O)[O-])cc2)s1 | inconclusive: 39.8 µM [activator, partial curve, poor fit]
O=C(Nc1ccccc1Sc1ccccc1)c1ccccc1 | inactive
